The results in this text go back to PubChem BioAssay AID1508624 (National Center for Advancing Translational Sciences (NCATS), 2021).

SMILES strings stand for the structures. Among all 48,000 compounds or so, about 120 (0.25%) were called active. Roughly 4% stayed inconclusive and do not appear here. The call rests on the fitted dose curve; in most records, active means well fitted activation curve with a large enough effect; inconclusive means small, poorly fitted or top-dose-only effect, or another doubt; inactive means no such curve, though single readings can be large or run the other way. Some of the results follow.

The nature of the experiment: Primary qHTS for Identification of Small Molecule Activators of Huntingtin-Antisense Promoter Activity. Further: nearly all actives have a fitted effect of over 55% in size. Particulars: HEK293 HTT-AS promoter firefly luciferase reporter (activity 0% = vehicle and -100% = no light), 24 h; series mostly up to 57.5 µM; activity change, positive = activation: at the top concentration. The gist of the method: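 Firefly luciferase signal from promoter-reporter HEK293 cells was scaled between vehicle (0%) and zero RLU (-100%). Compounds were tested at final concentrations of up to 57.5 uM over 24 h at 37 degrees C. PTC124 at 50 uM final served as control inhibitor.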
On the technique in general: Quantitative high-throughput screening tests each substance at several concentrations.
Regarding `CCOc1ccccc1CNS(=O)(=O)c1cc2c(cc1C)NC(=O)CO2`, the “activity change, positive = activation” value is inactive: -16.2%.

`Cc1ccccc1CNC(=O)CCC(=O)N1CCSc2ccccc21`: the “activity change, positive = activation” value is inactive: -17%.

As to `O=C(NCc1ccc(F)cc1)C(=O)Nc1ccc2nc3n(c(=O)c2c1)CCCCC3`, the “activity change, positive = activation” value was inactive: -2%.

Consider `CCn1nnc2cc(C(=O)Nc3cc(C)ccc3C)ccc21`, for which the “activity change, positive = activation” value is inactive: -3.13%.

Take `Cc1ccc(-c2cc3ncc4c(n3n2)-c2cc(Cl)ccc2OC4)cc1`: the “activity change, positive = activation” value is inactive: -8.05%.

On to `COc1ccc(NC(=O)CCNS(=O)(=O)c2ccc3c(c2)CCCC(=O)N3)cc1`, for which the “activity change, positive = activation” value was inactive: -9.68%.

For `COc1ccc(NC(=O)CC2C(=O)N(c3cccc(OC)c3)C(=O)N2CCC2=CCCCC2)cc1` (configuration not stated), the “activity change, positive = activation” value was inactive: -53%.

For the compound `CCOc1ccc(CC(=O)NCc2ccc3c(c2)CCN3C(=O)c2ccccc2)cc1OCC`, the “activity change, positive = activation” value was inactive: -26.5%.

Consider `Cc1ccc(Nc2nc3ccc(C(=O)c4ccccc4)cc3n3c(C)nnc23)c(C)c1`, for which the “activity change, positive = activation” value is inactive: -2.49%.

With `Cc1sc2ncn(CC(=O)N(C)c3ccc(C(C)C)cc3)c(=O)c2c1S(=O)(=O)N1CCC(C)CC1`, the “activity change, positive = activation” value was inactive: -28.6%.

`COc1ccc(-c2noc(CC(=O)Nc3cc(OC)ccc3OC)n2)cc1`: the “activity change, positive = activation” value is inactive: -27.7%.

As to `CC1CCC(NC(=O)C2(C)Cc3ccccc3C(=O)N2Cc2ccc(Cl)cc2)CC1` (configuration not stated), the “activity change, positive = activation” value is inactive: -14.1%.

With `CCCn1c(=O)c2sccc2n2c(CCCC(=O)N3CCN(c4cccc(Cl)c4)CC3)nnc12`, the “activity change, positive = activation” value is inactive: -3.5%.

With `CC(=O)c1cccc(NC(=O)CN2C(=O)CC(c3ccc(C)cc3C)=Nc3ccccc32)c1`, the “activity change, positive = activation” value is inactive: -3.45%.

Regarding `O=C(/C=C/c1ccc(Cl)cc1)N1CCC(c2nc3ccccc3o2)CC1`, the “activity change, positive = activation” value is inactive: 24.1%.

On to `CCCCN(CC)CCCNC(=O)c1cn(CC)c2ccc(S(=O)(=O)N3CCc4ccccc4C3)cc2c1=O`, for which the “activity change, positive = activation” value is inactive: -12.7%.

In the case of `COc1ccc(NC(=O)c2ccco2)cc1NC(=O)c1ccc(C#N)cc1F`, the “activity change, positive = activation” value was inactive: -11.6%.

Turning to `O=C(NCCc1ccccc1)C1CCN(c2nc3ccccc3nc2C(F)(F)F)CC1`, the “activity change, positive = activation” value is inactive: 8.44%.

Turning to `CCCCCSc1nnc2c(n1)[nH]c1c(C)cccc12`, the “activity change, positive = activation” value was inactive: 7.67%.

`FC(F)(F)c1cc(Nc2nc3ccccc3c3nncn23)ccc1Cl`: the “activity change, positive = activation” value was inactive: -7.88%.

Consider `COCCn1c(SCC(=O)c2ccc(C)cc2)nc2cc(C(=O)NC3CCCC3)ccc2c1=O`, for which the “activity change, positive = activation” value was inactive: 6.32%.

`COc1ccccc1N1CCN(c2ncnc3c2cnn3-c2ccc(C)cc2)CC1`: the “activity change, positive = activation” value is inactive: -38.9%.

On to `CCCNC(=O)c1cnn(-c2ccc(C)c(C)c2)c1C1CCN(C(=O)OC(C)(C)C)CC1`, for which the “activity change, positive = activation” value was inactive: -15.7%.

Consider `Cc1cccc(CN2CCN(CC(=O)NCCc3ccc(Cl)cc3)C2=O)c1`, for which the “activity change, positive = activation” value is inactive: -15.2%.

For the compound `Cc1cc(C)c(NC(=O)c2oc3c(c2C)-c2[nH]ncc2CC3)c(C)c1`, the “activity change, positive = activation” value was inactive: -1.18%.

Regarding `Fc1ccccc1N1CCN(c2ncnc3onc(-c4ccc(Cl)cc4)c23)CC1`, the “activity change, positive = activation” value is inactive: -33.2%.

Regarding `CCOC(=O)c1ccccc1NC(=O)CN1C(=O)CC(c2ccccc2)Sc2ccccc21` (configuration not stated), the “activity change, positive = activation” value was inactive: -29.1%.

Take `COc1ccc(Cl)cc1NC(=O)CSc1nc2c(oc3ccccc32)c(=O)n1Cc1ccco1`: the “activity change, positive = activation” value is inactive: -11.5%.

For `CCCCOc1ccc(C(=O)NCc2cn3cccc(C)c3n2)cc1`, the “activity change, positive = activation” value was inactive: -4.2%.

In the case of `Cc1cccc(-c2nc3scc(CCNS(=O)(=O)c4ccc(F)c(C(F)(F)F)c4)n3n2)c1`, the “activity change, positive = activation” value was inactive: -27%.

In the case of `Cc1ccc(C(=O)Nc2ccc(C(=O)O)cc2)cc1S(=O)(=O)N1CCC(C)CC1`, the “activity change, positive = activation” value was inactive: 3.79%.

As to `CCCCOc1ccc(C(=O)NCCc2sc3nc(-c4ccc(OC)cc4)nn3c2C)cc1`, the “activity change, positive = activation” value was inactive: 0.589%.

For the compound `O=C(Nc1ccc(N2CCN(c3ccc(F)cc3)CC2)c(C(=O)O)c1)c1cccs1`, the “activity change, positive = activation” value is inactive: 18.3%.

On to `CCOc1cc2c(cc1OCC)C(CC(=O)O)N(C(=O)Nc1ccc(Br)c(C)c1)CC2` (configuration not stated), for which the “activity change, positive = activation” value is inactive: 10.2%.

In the case of `CCN(CC)c1nn2c(=O)c(C(=O)NCCc3ccccc3C)cnc2s1`, the “activity change, positive = activation” value is inactive: -21.1%.

In the case of `O=C(NCc1ccc(Cl)cc1)C1CCC(CNS(=O)(=O)c2ccccc2)CC1` (configuration not stated), the “activity change, positive = activation” value is inactive: -23.8%.

`CCOc1ccc(N(C)C(=O)C2CCN(S(=O)(=O)c3c(C)noc3/C=C/c3ccc(C)cc3)CC2)cc1`: the “activity change, positive = activation” value is inactive: -9.39%.

Turning to `Cn1c(=O)c2c(nc(CN3CCN(c4ccccc4F)CC3)n2Cc2ccc(F)cc2)n(C)c1=O`, the “activity change, positive = activation” value is inactive: -19.3%.

On to `CCOc1ccc(N(Cc2ccccc2)C(=O)c2nc(SC)ncc2Cl)cc1`, for which the “activity change, positive = activation” value was inactive: -36.2%.

`O=c1c(S(=O)(=O)c2ccccc2)cn(Cc2ccccc2)c2cc(N3CCCC3)c(F)cc12`: the “activity change, positive = activation” value was inactive: -7.08%.

`Cc1nn(C)c2c1c(C(F)(F)F)cc(=O)n2Cc1ccc(Br)cc1F`: the “activity change, positive = activation” value is inactive: -14%.

As to `Cc1cccc(NC(=O)CSc2nc3n[nH]c(C)c3c(=N)n2-c2cccc(Cl)c2)c1`, the “activity change, positive = activation” value was inactive: -42.6%.

In the case of `Cc1cc(C)cc(C(=O)NCCc2sc(-c3ccc(F)cc3)nc2C)c1`, the “activity change, positive = activation” value is inactive: -2.53%.

As for `COc1ccc(OC)c(C2CC(=O)Nc3c2c(=O)[nH]c2nc4ccccc4n32)c1` (configuration not stated), the “activity change, positive = activation” value was inactive: 0.841%.

As to `CCOC(=O)C1CCN(CCC(=O)Nc2ccccc2OC)CC1`, the “activity change, positive = activation” value was inactive: 8.8%.

On to `N#Cc1ccc(NC(=O)COCc2cc(-c3ccco3)on2)cc1`, for which the “activity change, positive = activation” value was inactive: -13.5%.

In the case of `CCCOc1ccc(C(=O)N2CCC(c3nc4ccccc4s3)CC2)cc1`, the “activity change, positive = activation” value was inactive: -11.2%.

For the compound `O=C(C1CC1)N1CCc2cc(Br)cc(S(=O)(=O)Nc3ccc(F)c(F)c3)c21`, the “activity change, positive = activation” value was inactive: -85.7%.

With `CCc1ccc(/C=C(/C#N)c2nc(-c3ccc(C)cc3)cs2)cc1`, the “activity change, positive = activation” value was inactive: -5.07%.

For the compound `O=S(=O)(NCC(c1ccco1)N1CCN(c2ccccc2)CC1)c1cc(F)ccc1F` (configuration not stated), the “activity change, positive = activation” value is inactive: -27.6%.

`Cc1cc(C)cc(N2CCn3c2nc2c3c(=O)n(Cc3c(F)cccc3Cl)c(=O)n2C)c1`: the “activity change, positive = activation” value is inactive: -8.46%.

With `O=C(Cn1c(=O)c(CNc2ccccc2)cc2cc3c(cc21)OCCO3)Nc1ccccc1Cl`, the “activity change, positive = activation” value was inactive: -14.3%.

Consider `CCc1ccc2oc(-c3ccc(C)c(NC(=O)Cc4ccccc4)c3)nc2c1`, for which the “activity change, positive = activation” value is inactive: 23.5%.

`CC(C)(C)OC(=O)N1CCC(c2c(C(=O)NCCN3CCOCC3)cnn2-c2cccc(Cl)c2)CC1`: the “activity change, positive = activation” value is inactive: -8.42%.

As to `CCOc1ccc(S(=O)(=O)N2CCC(c3ccncc3)CC2)cc1`, the “activity change, positive = activation” value is inactive: -19.2%.

Turning to `COc1cccc(NC(=O)c2oc3ccc(S(=O)(=O)N4CCCCCC4)cc3c2C)c1`, the “activity change, positive = activation” value was inactive: -16.2%.

Regarding `CCOC(=O)C(C)Sc1nc(-c2ccccc2)ccc1C#N` (configuration not stated), the “activity change, positive = activation” value was inactive: -31.2%.

In the case of `Cc1ccc(NC(=O)c2ccc3snnc3c2)cc1C`, the “activity change, positive = activation” value is inactive: 15.3%.

Regarding `CCC(C)NC(=O)c1c(C)oc2nc(C)nc(N3CCOCC3)c12` (configuration not stated), the “activity change, positive = activation” value is inactive: -0.78%.

On to `COc1ccccc1NC(=O)C1CCCN(c2ncnc3onc(-c4ccc(F)cc4)c23)C1` (configuration not stated), for which the “activity change, positive = activation” value was inactive: -15.9%.

For `COC(=O)c1ccccc1NC(=O)c1nn(-c2ccc(OC)cc2)c(=O)c2c1c1ccccc1n2C`, the “activity change, positive = activation” value was inactive: -9.24%.

In the case of `COc1cccc(NC(=O)C2CCN(S(=O)(=O)c3ccc4[nH]c5c(c4c3)CCCCC5)CC2)c1`, the “activity change, positive = activation” value was inactive: -33%.
